# Laboratory results published in the supplement of paper PMC8728848.
# The list shows a part of the results.
# B1: Pa IMPa (Pseudomonas aeruginosa), Q9I5W4 (protein)
# chain: MSLSTTAFPSLQGENMSRSPIPRHRALLAGFCLAGALSAQAATQEEILDAALVSGDSSQLTDSHLVALRLQQQVERIRQTRTQLLDGLYQNLSQAYDPGAASMWVLPANPDNTLPFLIGDKGRVLASLSLEAGGRGLAYGTNVLTQLSGTNAAHAPLLKRAVQWLVNGDPGAATAKDFKVSVVGVDKTAALNGLKSAGLQPADAACNALTDASCASTSKLLVLGNGASAASLSATVRARLQAGLPILFVHTNGWNQSSTGQQILAGLGLQEGPYGGNYWDKDRVPSSRTRTRSVELGGAYGQDPALVQQIVDGSWRTDYDWSKCTSYVGRTTCDDVPGLSDFSKRVDVLKGALDAYNQKAQNLFALPGTTSLRLWLLWADAVRQNIRYPMDKAADTARFQETFVADAIVGYVREAGAAQKELGSYAGQRQQSMPVSGSEETLTLTLPSAQGFTAIGRMAAPGKRLSIRIEDAGQASLAVGLNTQRIGSTRLWNTRQYDRPRFLKSPDIKLQANQSVALVSPYGGLLQLVYSGATPGQTVTVKVTGAASQPFLDIQPGEDSSQAIADFIQALDADKADWLEIRSGSVEVHAKVEKVRGSIDKDYGGDVQRFIRELNEVFIDDAYTLAGFAIPNQAKTPAIQQECAARGWDCDSETLHKLPGTQHINVDQYAQCGGGCSGNPYDQTWGLNPRGWGESHELGHNLQVNRLKVYGGRSGEISNQIFPLHKDWRVLREFGQNLDDTRVNYRNAYNLIVAGRAEADPLAGVYKRLWEDPGTYALNGERMAFYTQWVHYWADLKNDPLQGWDIWTLLYLHQRQVDKSDWDANKAALGYGTYAQRPGNSGDASSTDGNDNLLLGLSWLTQRDQRPTFALWGIRTSAAAQAQVAAYGFAEQPAFFYANNRTNEYSTVKLLDMSQGSPAWPFP
# Tests used:
# Assay in all cases: glycan array binding signal (z-score within array); higher = stronger binding
# Conditions in all cases: glycan notation: IUPAC condensed, linker removed
# [1] = molecular target: Gal(b1-4)GlcNAc(b1-3)Gal(b1-4)GlcNAc(b1-2)[Gal(b1-4)GlcNAc(b1-3)Gal(b1-4)GlcNAc(b1-6)]Man(a1-6)[Gal(b1-4)GlcNAc(b1-3)Gal(b1-4)GlcNAc(b1-2)Man(a1-3)]Man(b1-4)GlcNAc(b1-4)GlcNAc
# Outline: (§1)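 Glycan array data came from 3228 arrays in the Consortium for Functional Glycomics database, and only arrays with an available protein sequence were kept. Glycan names were put into IUPAC-condensed notation, and columns mapping to the same glycan were averaged. The binding signal is a within-array Z-score, averaged across arrays of one protein sequence run at different concentrations or buffers and across linkers. A negative Z-score can be read as non-binding.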
# [2] = molecular target: Gal(b1-4)GlcNAc(b1-3)Gal(b1-4)GlcNAc(b1-2)[Gal(b1-4)GlcNAc(b1-3)Gal(b1-4)GlcNAc(b1-6)]Man(a1-6)[Gal(b1-4)GlcNAc(b1-3)Gal(b1-4)GlcNAc(b1-2)Man(a1-3)]Man(b1-4)GlcNAc(b1-4)[Fuc(a1-6)]GlcNAc
# Outline: as §1
# [3] = molecular target: Gal(b1-4)GlcNAc(b1-3)Gal(b1-4)GlcNAc(b1-3)Gal(b1-4)GlcNAc
# Outline: as §1
# [4] = molecular target: Gal(b1-4)GlcNAc(b1-3)Gal(b1-4)GlcNAc(b1-3)Gal(b1-4)GlcNAc(b1-2)Man(a1-3)[Gal(b1-4)GlcNAc(b1-3)Gal(b1-4)GlcNAc(b1-3)Gal(b1-4)GlcNAc(b1-2)Man(a1-6)]Man(b1-4)GlcNAc(b1-4)GlcNAc
# Outline: as §1
# [5] = molecular target: Gal(b1-4)GlcNAc(b1-3)Gal(b1-4)GlcNAc(b1-3)Gal(b1-4)GlcNAc(b1-2)Man(a1-3)[Gal(b1-4)GlcNAc(b1-3)Gal(b1-4)GlcNAc(b1-3)Gal(b1-4)GlcNAc(b1-2)Man(a1-6)]Man(b1-4)GlcNAc(b1-4)[Fuc(a1-6)]GlcNAc
# Outline: as §1
# [6] = molecular target: Gal(b1-4)GlcNAc(b1-3)Gal(b1-4)GlcNAc(b1-3)Gal(b1-4)GlcNAc(b1-2)[Gal(b1-4)GlcNAc(b1-3)Gal(b1-4)GlcNAc(b1-3)Gal(b1-4)GlcNAc(b1-6)]Man(a1-6)[Gal(b1-4)GlcNAc(b1-3)Gal(b1-4)GlcNAc(b1-3)Gal(b1-4)GlcNAc(b1-2)Man(a1-3)]Man(b1-4)GlcNAc(b1-4)[Fuc(a1-6)]GlcNAc
# Outline: as §1
# [7] = molecular target: Gal(b1-4)GlcNAc(b1-3)Gal(b1-4)GlcNAc(b1-3)Gal(b1-4)GlcNAc(b1-3)Gal(b1-4)GlcNAc(b1-2)Man(a1-3)[Gal(b1-4)GlcNAc(b1-3)Gal(b1-4)GlcNAc(b1-3)Gal(b1-4)GlcNAc(b1-3)Gal(b1-4)GlcNAc(b1-2)Man(a1-6)]Man(b1-4)GlcNAc(b1-4)GlcNAc
# Outline: as §1
# [8] = molecular target: Gal(b1-4)GlcNAc(b1-3)Gal(b1-4)GlcNAc(b1-3)Gal(b1-4)GlcNAc(b1-3)Gal(b1-4)GlcNAc(b1-2)Man(a1-3)[Gal(b1-4)GlcNAc(b1-3)Gal(b1-4)GlcNAc(b1-3)Gal(b1-4)GlcNAc(b1-3)Gal(b1-4)GlcNAc(b1-2)Man(a1-6)]Man(b1-4)GlcNAc(b1-4)[Fuc(a1-6)]GlcNAc
# Outline: as §1
# [9] = molecular target: Gal(b1-4)GlcNAc(b1-3)Gal(b1-4)GlcNAc(b1-3)Gal(b1-4)GlcNAc(b1-3)Gal(b1-4)GlcNAc(b1-2)[Gal(b1-4)GlcNAc(b1-3)Gal(b1-4)GlcNAc(b1-3)Gal(b1-4)GlcNAc(b1-3)Gal(b1-4)GlcNAc(b1-6)]Man(a1-6)[Gal(b1-4)GlcNAc(b1-3)Gal(b1-4)GlcNAc(b1-3)Gal(b1-4)GlcNAc(b1-3)Gal(b1-4)GlcNAc(b1-2)Man(a1-3)]Man(b1-4)GlcNAc(b1-4)[Fuc(a1-6)]GlcNAc
# Outline: as §1
# [10] = molecular target: Gal(b1-4)GlcNAc(b1-3)Gal(b1-4)GlcNAc(b1-3)Gal(b1-4)GlcNAc(b1-3)Gal(b1-4)GlcNAc(b1-3)Gal(b1-4)GlcNAc(b1-2)Man(a1-3)[Gal(b1-4)GlcNAc(b1-3)Gal(b1-4)GlcNAc(b1-3)Gal(b1-4)GlcNAc(b1-3)Gal(b1-4)GlcNAc(b1-3)Gal(b1-4)GlcNAc(b1-2)Man(a1-6)]Man(b1-4)GlcNAc(b1-4)GlcNAc
# Outline: as §1
# [11] = molecular target: Gal(b1-4)GlcNAc(b1-3)Gal(b1-4)GlcNAc(b1-3)Gal(b1-4)GlcNAc(b1-3)Gal(b1-4)GlcNAc(b1-3)Gal(b1-4)GlcNAc(b1-2)Man(a1-3)[Gal(b1-4)GlcNAc(b1-3)Gal(b1-4)GlcNAc(b1-3)Gal(b1-4)GlcNAc(b1-3)Gal(b1-4)GlcNAc(b1-3)Gal(b1-4)GlcNAc(b1-2)Man(a1-6)]Man(b1-4)GlcNAc(b1-4)[Fuc(a1-6)]GlcNAc
# Outline: as §1
# [12] = molecular target: Gal(b1-4)GlcNAc(b1-3)Gal(b1-4)GlcNAc(b1-3)Gal(b1-4)GlcNAc(b1-3)Gal(b1-4)GlcNAc(b1-3)Gal(b1-4)GlcNAc(b1-2)[Gal(b1-4)GlcNAc(b1-3)Gal(b1-4)GlcNAc(b1-3)Gal(b1-4)GlcNAc(b1-3)Gal(b1-4)GlcNAc(b1-3)Gal(b1-4)GlcNAc(b1-6)]Man(a1-6)[Gal(b1-4)GlcNAc(b1-3)Gal(b1-4)GlcNAc(b1-3)Gal(b1-4)GlcNAc(b1-3)Gal(b1-4)GlcNAc(b1-3)Gal(b1-4)GlcNAc(b1-2)Man(a1-3)]Man(b1-4)GlcNAc(b1-4)[Fuc(a1-6)]GlcNAc
# Outline: as §1
# [13] = molecular target: Gal(b1-4)GlcNAc(b1-3)Gal(b1-4)GlcNAc(b1-3)Gal(b1-4)GlcNAc(b1-3)Gal(b1-4)GlcNAc(b1-3)Gal(b1-4)GlcNAc(b1-3)Gal(b1-4)GlcNAc(b1-2)Man(a1-3)[Gal(b1-4)GlcNAc(b1-3)Gal(b1-4)GlcNAc(b1-3)Gal(b1-4)GlcNAc(b1-3)Gal(b1-4)GlcNAc(b1-3)Gal(b1-4)GlcNAc(b1-3)Gal(b1-4)GlcNAc(b1-2)Man(a1-6)]Man(b1-4)GlcNAc(b1-4)GlcNAc
# Outline: as §1
# [14] = molecular target: Gal(b1-4)GlcNAc(b1-3)Gal(b1-4)GlcNAc(b1-3)GalNAc
# Outline: as §1
# [15] = molecular target: Gal(b1-4)GlcNAc(b1-3)Gal(b1-4)GlcNAc(b1-3)[Gal(b1-4)GlcNAc(b1-3)Gal(b1-4)GlcNAc(b1-6)]GalNAc
# Outline: as §1
# [16] = molecular target: Gal(b1-4)GlcNAc(b1-3)Gal(b1-4)GlcNAc(b1-6)[Gal(b1-3)]GalNAc
# Outline: as §1
# [17] = molecular target: Gal(b1-4)GlcNAc(b1-3)Gal(b1-4)[Fuc(a1-3)]GlcNAc(b1-3)Gal(b1-4)[Fuc(a1-3)]GlcNAc
# Outline: as §1
# [18] = molecular target: Gal(b1-4)GlcNAc(b1-3)GalNAc
# Outline: as §1
# [19] = molecular target: Gal(b1-4)GlcNAc(b1-3)[Fuc(a1-3)GlcNAc(b1-6)]Gal(b1-4)Glc
# Outline: as §1
# [20] = molecular target: Gal(b1-4)GlcNAc(b1-3)[Gal(b1-4)GlcNAc(b1-6)]Gal(b1-4)GlcNAc
# Outline: as §1
# [21] = molecular target: Gal(b1-4)GlcNAc(b1-3)[GlcNAc(b1-6)]Gal(b1-4)GlcNAc
# Outline: as §1
# [22] = molecular target: Gal(b1-4)GlcNAc(b1-6)Gal(b1-4)GlcNAc
# Outline: as §1
# [23] = molecular target: Gal(b1-4)GlcNAc(b1-6)GalNAc
# Outline: as §1
# [24] = molecular target: Gal(b1-4)GlcNAc(b1-6)[Gal(b1-3)]GalNAc
# Outline: as §1
# [25] = molecular target: Gal(b1-4)GlcNAc(b1-6)[Gal(b1-4)GlcNAc(b1-3)]GalNAc
# Outline: as §1
# [26] = molecular target: Gal(b1-4)GlcNAc6P
# Outline: as §1
# [27] = molecular target: Gal(b1-6)Gal
# Outline: as §1
# [28] = molecular target: Gal3S(b1-3)GalNAc
# Outline: as §1
# [29] = molecular target: Gal3S(b1-3)GlcNAc
# Outline: as §1
# [30] = molecular target: Gal3S(b1-3)[Fuc(a1-4)]GlcNAc
# Outline: as §1
binder,measurement,setting,value
B1,glycan array binding signal (z-score),[1],0.343
same,glycan array binding signal (z-score),[2],-0.092
same,glycan array binding signal (z-score),[3],-0.198
same,glycan array binding signal (z-score),[4],-0.029
same,glycan array binding signal (z-score),[5],0.811
same,glycan array binding signal (z-score),[6],-0.021
same,glycan array binding signal (z-score),[7],-0.445
same,glycan array binding signal (z-score),[8],0.038
same,glycan array binding signal (z-score),[9],-0.395
same,glycan array binding signal (z-score),[10],10.7
same,glycan array binding signal (z-score),[11],-0.209
same,glycan array binding signal (z-score),[12],0.196
same,glycan array binding signal (z-score),[13],-0.219
same,glycan array binding signal (z-score),[14],-0.316
same,glycan array binding signal (z-score),[15],-0.144
same,glycan array binding signal (z-score),[16],0.236
same,glycan array binding signal (z-score),[17],-0.339
same,glycan array binding signal (z-score),[18],-0.231
same,glycan array binding signal (z-score),[19],-0.301
same,glycan array binding signal (z-score),[20],-0.061
same,glycan array binding signal (z-score),[21],-0.16
same,glycan array binding signal (z-score),[22],-0.112
same,glycan array binding signal (z-score),[23],-0.227
same,glycan array binding signal (z-score),[24],-0.133
same,glycan array binding signal (z-score),[25],0.162
same,glycan array binding signal (z-score),[26],-0.446
same,glycan array binding signal (z-score),[27],0.022
same,glycan array binding signal (z-score),[28],0.375
same,glycan array binding signal (z-score),[29],-0.254
same,glycan array binding signal (z-score),[30],-0.143
